# Test results from the supplement of paper PMC3334620.
# In all, about 33,000 sequences were measured (“E-score (-0.5 to 0.5)”: median about -0.035, highest 2% from about 0.35 on). This is one part of the list.
# Biological target: T1, Pdr3 (UniProt P33200)
# T1 sequence: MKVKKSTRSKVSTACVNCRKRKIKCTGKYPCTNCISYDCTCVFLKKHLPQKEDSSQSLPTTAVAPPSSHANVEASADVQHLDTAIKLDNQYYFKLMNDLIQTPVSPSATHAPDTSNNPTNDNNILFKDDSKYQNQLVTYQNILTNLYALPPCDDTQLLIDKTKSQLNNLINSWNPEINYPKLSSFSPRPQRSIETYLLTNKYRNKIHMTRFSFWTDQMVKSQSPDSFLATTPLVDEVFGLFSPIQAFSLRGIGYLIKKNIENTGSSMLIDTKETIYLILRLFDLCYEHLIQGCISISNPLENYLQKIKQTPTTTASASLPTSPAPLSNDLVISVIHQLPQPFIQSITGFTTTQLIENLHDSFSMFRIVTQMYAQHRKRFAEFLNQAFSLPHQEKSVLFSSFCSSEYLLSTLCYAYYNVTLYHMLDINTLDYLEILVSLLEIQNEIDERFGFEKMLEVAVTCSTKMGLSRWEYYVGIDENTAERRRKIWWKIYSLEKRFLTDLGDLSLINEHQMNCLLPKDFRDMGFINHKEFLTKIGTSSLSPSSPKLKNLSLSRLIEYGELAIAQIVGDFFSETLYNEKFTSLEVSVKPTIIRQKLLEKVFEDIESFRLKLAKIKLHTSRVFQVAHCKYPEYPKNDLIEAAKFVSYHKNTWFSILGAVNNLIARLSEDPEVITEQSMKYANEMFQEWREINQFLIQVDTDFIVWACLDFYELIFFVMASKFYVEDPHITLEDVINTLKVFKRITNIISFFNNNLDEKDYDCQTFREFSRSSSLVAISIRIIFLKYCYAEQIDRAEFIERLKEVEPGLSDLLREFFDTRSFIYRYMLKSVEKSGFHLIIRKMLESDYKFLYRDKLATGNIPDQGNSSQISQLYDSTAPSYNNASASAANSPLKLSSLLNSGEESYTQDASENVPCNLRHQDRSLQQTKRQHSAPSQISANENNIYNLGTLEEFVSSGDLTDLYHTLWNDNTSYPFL
# Assay: PBM E-score (8-mer binding enrichment) (E-score (-0.5 to 0.5)); higher = stronger / more preferred TF binding; most listed sequences are background and not binding sites
# Conditions: protein concentration: 200 nM; construct: GST-full length
# Procedure, shortened: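 Masliner-normalised scans of fluorescent anti-GST signal were the basis for scoring. That signal came from GST-tagged yeast transcription factors applied at about 100-200 nM to double-stranded universal all-10-mer Agilent arrays on fresh or once-stripped slides. Each ungapped eight-base word, pooled with its reverse complement, received an E-score from the Universal PBM Analysis Suite.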
row,Sequence,PBM E-score
1,CAGTGACG,0.0566
2,ACGCGTTG,-0.00051
3,CCGTCCTA,-0.0127
4,ACAGCTAT,-0.195
5,GTACCAAC,0.00255
6,ATCGAAAC,0.0402
7,GCCTAAAA,-0.218
8,CCTGCGCA,-0.0974
9,CAGGCCCA,-0.204
10,ACGCTGAC,-0.14
11,CTTACGCC,-0.041
12,ATCGGGTA,0.0685
13,TACATCGA,-0.0326
14,CCAGTTCG,0.0412
15,AGGAATCC,0.0872
16,TATGAAGA,0.0594
17,GCATTTTA,0.198
18,AAGCAATT,-0.155
19,AGATGTGA,0.0386
20,CATCGACC,0.0651
21,GAATGATA,0.18
22,ACGGCACT,0.0609

row,Sequence,PBM E-score
1,AAAACTCA,0.0356
2,CGTGTGAG,-0.0242
3,AAACCCTT,-0.185
4,GATATCTA,-0.14
5,CATCGCCA,0.0655
6,ACGATGTC,-0.0633
7,AGCGTTAT,-0.208
8,CCAAGATA,-0.131
9,AACTGGCC,0.0895
10,CATGCCAG,-0.14
11,GTTCTCTA,-0.0723
12,CGCTTAGA,-0.189
13,GAAGGTGC,0.025
14,CGCCGTGC,0.135
15,ACATTTAG,-0.301
16,TCGATCGA,0.222
17,AATCCTGG,-0.0835
18,GATAGGTA,-0.00733
19,GCTCGCGA,0.188
20,TACTAGCA,-0.0209
21,AGTGTTTG,-0.04
22,TCCAGTAA,-0.156

row,Sequence,PBM E-score
1,CCCACGAA,0.0513
2,CTTAGGAC,-0.202
3,ACGAATCG,0.0649
4,CGGTTGCA,-0.0738
5,CGGAGCCG,0.369
6,GATACAGA,0.00655
7,AGCGAACG,-0.134
8,ATTTCGCC,0.175
9,CGTTTCTA,-0.152
10,ATCATGAG,-0.262
11,GATACCTA,0.0415
12,AGCTACAC,-0.121
13,CGGCTGAC,0.231
14,CTTCTCGC,0.0476
15,CGCGCGAC,0.239
16,TCCGAACA,0.314
17,AAAGGGGA,-0.0513
18,ACACTGTG,0.0268
19,ACACGCAC,-0.0668
20,AGTGACCA,-0.00406
21,GGCGCGAA,0.106
22,GTGAACAC,-0.094

row,Sequence,PBM E-score
1,ATATATTA,0.117
2,TCTTAGCA,-0.215
3,AGTAAGTG,-0.145
4,CACGCAAC,0.0106
5,AACACCTA,-0.269
6,ACGGTCAC,-0.0325
7,CCCATGCC,0.0609
8,CAGCAGCC,-0.0725
9,CGTACCAC,-0.102
10,GCTACCCC,-0.147
11,CAGAAGGG,-0.181
12,GACACACA,-0.0609
13,ATCCGCCC,0.251
14,ACGCCACG,-0.181
15,CCGCCAGA,0.179
16,CCCAGGCA,-0.0845
17,AGACGTAC,-0.0286
18,AACCTCTC,-0.0481
19,AACGGCCG,0.344
20,CGATACTC,0.0572
